Results reported in the supplement of paper PMC5919970.
Counter-ions that a name gives are not always drawn. The full ranking holds about 2,000 compounds; the median of “fractional viability relative to vehicle” is about 0.91, and the lowest 2% start at about 0.045. The list shows a part of the results.

Tested on: TYKNU
Test: fractional viability relative to vehicle; TYKNU is a high-grade serous ovarian cancer line; higher = less growth inhibition
Details: 72 h
Outline: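 TYKNU control cells or lentiCRISPRv2 knockout derivatives were seeded at 500 cells per well into drug-stamped 384-well plates holding a ~2100-compound library at 2 or 10 μM, in duplicate. Cells were grown at 37 °C in 5% CO2 in RPMI 1640 with 10% FBS, and drug treatment lasted 72 h. Viability was read by Cell Titer Glo luminescence. Duplicate treatment wells were averaged and normalised to duplicate control wells from the same plate position.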

[1] = 2uM, genotype: DNM1L knockout (sgDNM1L #1)
[2] = 2uM, genotype: sgCTRLA1 (non-targeting control)
[3] = 10uM, genotype: DNM1L knockout (sgDNM1L #1)
[4] = 10uM, genotype: sgCTRLA1 (non-targeting control)

| SMILES | fractional viability [1] | fractional viability [2] | fractional viability [3] | fractional viability [4] |
| --- | --- | --- | --- | --- |
| CN(C)[C@@H](CCOc1cccc2ccccc12)c1ccccc1 [Dapoxetine HCl] | 0.944 | 1.07 | 0.678 | 0.851 |
| CNC(=O)c1ccc(N2C(=S)N(c3cnc(C#N)c(C(F)(F)F)c3)C(=O)C23CCC3)cc1F | 1.03 | 1.19 | 0.814 | 0.957 |
| O=C(c1ccc(OCCN2CCCCC2)cc1)c1c(-c2ccc(O)cc2)sc2cc(O)ccc12 [Raloxifene HCl] | 1.09 | 0.991 | 0.712 | 0.651 |
| CCOc1cc(N2CCC(O)CC2)ccc1Nc1ncc2c(n1)N(C)c1ccccc1C(=O)N2C | 0.651 | 0.842 | 0.539 | 0.531 |
| Cc1ccc(NC(=O)Nc2cc(C(F)(F)F)ccc2F)cc1Nc1ccc2c(c1)NC(=O)/C2=C\c1ccc[nH]1 | 0.873 | 0.905 | 0.918 | 0.825 |
| CNC(=O)c1ccccc1Sc1ccc2c(/C=C/c3ccccn3)n[nH]c2c1 [Axitinib] | 0.904 | 0.849 | 0.563 | 0.549 |
| Fc1ccc2[nH]ccc2c1-c1nc(N2CCOCC2)c2sc(CN3CCN(CC4CC4)CC3)cc2n1 | 0.883 | 0.947 | 0.634 | 0.711 |
| CC(CN1c2ccccc2Sc2ccccc21)N(C)C (stereo unspecified) [Promethazine HCl] | 0.872 | 0.945 | 0.667 | 0.956 |
| CCOC(=O)C1=C(C)NC(C)=C(C(=O)OC)C1c1cccc([N+](=O)[O-])c1 (stereo unspecified) [Nitrendipine] | 0.977 | 1.1 | 0.721 | 0.945 |
| COC1(c2sc3c(N4CCOCC4)nc(-c4cnc(N)nc4)nc3c2C)COC1 | 0.138 | 0.183 | 0.15 | 0.117 |
| COc1ccc(-n2nc(C(N)=O)c3c2C(=O)N(c2ccc(N4CCCCC4=O)cc2)CC3)cc1 [Apixaban] | 1.02 | 1.05 | 0.992 | 1.07 |
| COc1ccc(C(C)=O)c(O)c1 [Paeonol] | 0.904 | 1.08 | 0.775 | 1.11 |
| CC(C)[C@H]1CC[C@H](C(=O)N[C@H](Cc2ccccc2)C(=O)O)CC1 [Nateglinide] | 1.01 | 0.99 | 0.838 | 0.991 |
| Nc1cccc(-c2cc3c(Oc4cccc(O)c4)ncnc3[nH]2)c1 | 1.03 | 1.24 | 0.436 | 0.462 |
| COc1c(O)cc2c(c1O)[C@@H]1O[C@H](CO)[C@@H](O)[C@H](O)[C@H]1OC2=O [Bergenin] | 0.911 | 1.15 | 0.973 | 1.04 |
| CC(C)c1nc(CN(C)C(=O)N[C@H](C(=O)N[C@@H](Cc2ccccc2)C[C@H](O)[C@H](Cc2ccccc2)NC(=O)OCc2cncs2)C(C)C)cs1 [Ritonavir] | 0.99 | 1.17 | 0.822 | 1.07 |
| COc1ccccc1OCCNCC(O)COc1cccc2[nH]c3ccccc3c12 (stereo unspecified) [Carvedilol] | 0.852 | 1 | 0.555 | 0.739 |
| CC1CCc2cc(F)cc3c(=O)c(C(=O)O)cn1c23 (stereo unspecified) [Flumequine] | 1.01 | 1.09 | 0.991 | 1.17 |
| CCCCOc1ccc(OCCCN2CCOCC2)cc1 [Pramoxine HCl] | 1.07 | 1.09 | 0.971 | 1.06 |
| C[C@@H](O)[C@H]1C(=O)N2C(C(=O)OCOC(=O)C(C)(C)C)=C(SC3CN(C4=NCCS4)C3)[C@H](C)[C@H]12 [Tebipenem Pivoxil] | 0.892 | 1.07 | 0.837 | 1.02 |

| SMILES | fractional viability [1] | fractional viability [2] | fractional viability [3] | fractional viability [4] |
| --- | --- | --- | --- | --- |
| CCN1CCCC1CNC(=O)c1cc(S(=O)(=O)CC)c(N)cc1OC (stereo unspecified) [Amisulpride] | 1.03 | 1.03 | 0.958 | 1.02 |
| Nc1nc(N)nc(-c2cc(Cl)ccc2Cl)n1 [Irsogladine] | 0.933 | 1.02 | 1.16 | 1.02 |
| CCCS(=O)(=O)Nc1ccc(F)c(C(=O)c2c[nH]c3ncc(Cl)cc23)c1F | 1.12 | 1.16 | 0.552 | 0.824 |
| CNC(=O)CN1CCC(Oc2cc3c(Nc4cccc(Cl)c4F)ncnc3cc2OC)CC1 [AZD8931 (Sapitinib)] | 1.09 | 1.2 | 0.92 | 1.07 |
| Nc1ncnc2c1c(-c1cccc(OCc3ccccc3)c1)cn2C1CC(CN2CCCC2)C1 (stereo unspecified) | 0.983 | 0.895 | 0.109 | 0.0818 |
| O=C(Nc1cccc(Cl)c1)Nc1ncc(CCNc2ncnc3ccsc23)s1 [SNS-314 Mesylate] | 0.705 | 0.722 | 0.644 | 0.404 |
| CCc1c(C(=O)NCCc2ccc(N3CCCCC3)cc2)[nH]c2ccc(Cl)cc12 | 0.749 | 1.01 | 0.923 | 0.991 |
| CN1CCN(c2ccc(C(=O)Nc3n[nH]c4ccc(Cc5cc(F)cc(F)c5)cc34)c(NC3CCOCC3)c2)CC1 [Entrectinib (RXDX-101)] | 0.597 | 0.771 | 0.0511 | 0.0303 |
| COc1ccc(/C=C/C(=O)C2(C(=O)/C=C/c3ccc(OC)c(OC)c3)CCCCC2)cc1OC | 0.183 | 0.264 | 0.0823 | 0.108 |
| Cn1c(=O)c(F)c(Nc2ccc(I)cc2F)c2c(=O)n(C[C@@H](O)CO)cnc21 | 0.209 | 0.2 | 0.154 | 0.156 |
| COc1ccc(-c2cc3c(C)nc(N)nc3n([C@H]3CC[C@H](OCCO)CC3)c2=O)cn1 | 0.141 | 0.165 | 0.0585 | 0.0406 |
| CC(C)(C)C#Cc1cc(N(C(=O)[C@H]2CC[C@H](C)CC2)[C@H]2CC[C@H](O)CC2)c(C(=O)O)s1 [VX-222 (VCH-222, Lomibuvir)] | 0.983 | 1.03 | 0.818 | 0.95 |
| CC(C)N(CCC(=O)c1ccc2ccccc2c1)Cc1ccccc1 | 0.765 | 0.892 | 0.908 | 0.806 |
| CCOC(=O)c1ccc(C#Cc2ccc3c(c2)C(C)(C)CCS3)nc1 [Tazarotene] | 0.749 | 1.01 | 0.882 | 1.12 |
| CCC(C)(C)c1ccc(CC(C)CN2C[C@@H](C)O[C@@H](C)C2)cc1 (stereo partly specified) [Amorolfine HCl] | 0.921 | 0.962 | 0.707 | 0.927 |
| CCCNS(=O)(=O)Nc1ncnc(OCCOc2ncc(Br)cn2)c1-c1ccc(Br)cc1 [Macitentan] | 0.935 | 1.04 | 0.78 | 0.81 |
| CCOc1nc2cccc(C(=O)OC(C)OC(=O)OC3CCCCC3)c2n1Cc1ccc(-c2ccccc2-c2nn[nH]n2)cc1 (stereo unspecified) [Candesartan Cilexetil] | 0.922 | 1.22 | 0.76 | 1.1 |
| CCN1CCC[C@H]1CNC(=O)c1cc(S(N)(=O)=O)ccc1OC [Levosulpiride] | 1.02 | 1.01 | 0.922 | 1.03 |
| Nc1ccc(S(N)(=O)=O)cc1 [Sulfanilamide] | 0.895 | 1.17 | 0.899 | 1.05 |
| CC(C)(Oc1ccc(C2CC2(Cl)Cl)cc1)C(=O)O (stereo unspecified) [Ciprofibrate] | 0.986 | 1.13 | 0.83 | 1.18 |

| SMILES | fractional viability [1] | fractional viability [2] | fractional viability [3] | fractional viability [4] |
| --- | --- | --- | --- | --- |
| N#CC(=C(/N)Sc1ccccc1N)/C(C#N)=C(\N)Sc1ccccc1N | 1.13 | 1.02 | 0.859 | 1.01 |
| Cc1[nH]c(/C=C2\C(=O)Nc3ccc(S(=O)(=O)Cc4c(Cl)cccc4Cl)cc32)c(C)c1C(=O)N1CCC[C@@H]1CN1CCCC1 | 0.317 | 0.279 | 0.0474 | 0.0167 |
| NC(=O)[C@@H](CCC(F)(F)F)N(Cc1ccc(-c2ncon2)cc1F)S(=O)(=O)c1ccc(Cl)cc1 | 0.818 | 1.04 | 0.638 | 0.822 |
| COc1ccc(CNCc2cccc3ccccc23)cc1 | 0.994 | 1.09 | 0.795 | 1.05 |
| C=CCN1CCCC1CNC(=O)c1cc2nn[nH]c2cc1OC (stereo unspecified) [Alizapride HCl] | 0.869 | 1.2 | 0.83 | 1.06 |
| CC(C)c1onc(-c2c(Cl)cccc2Cl)c1COc1ccc(/C=C/c2cccc(C(=O)O)c2)c(Cl)c1 | 0.953 | 1.1 | 0.781 | 1.09 |
| NC(=O)CCCSc1nc(N)nc(-c2c(Cl)cc3c4c(cccc24)COC3)n1 | 0.91 | 0.97 | 0.915 | 0.789 |
| Nc1nc(Nc2ccc(S(N)(=O)=O)cc2)nn1C(=O)c1c(F)cccc1F | 0.583 | 0.742 | 0.255 | 0.282 |
| O=C(NCc1ccc(Oc2ccccc2)cc1)c1nc(-c2cc(Br)c(O)c(Br)c2)no1 | 0.997 | 1.06 | 0.296 | 0.407 |
| CCCCCCCCCCCCCCCC[N+](C)(C)C [Cetrimonium Bromide (CTAB)] | 0.311 | 0.295 | 0.0593 | 0.0171 |
| Cc1c(Cn2c(C)nc3c(C(=O)O)cc(N4CCOCC4)cc32)cccc1C(F)(F)F | 0.754 | 0.989 | 0.83 | 0.849 |
| S=c1nc[nH]c2nc[nH]c12 [6-Mercaptopurine (6-MP) Monohydrate] | 0.741 | 0.561 | 0.738 | 0.731 |
| NCc1c[nH]c(=S)n1[C@H]1CCc2c(F)cc(F)cc2C1 [Nepicastat (SYN-117) HCl] | 0.973 | 1.11 | 0.953 | 0.993 |
| NC(=O)c1cccnc1 [Nicotinamide (Vitamin B3)] | 0.923 | 1.16 | 0.82 | 1 |
| Nc1nccs1 [Aminothiazole] | 0.867 | 1.05 | 0.896 | 0.973 |
| Cn1c(=O)c2c(ncn2CC(O)CO)n(C)c1=O (stereo unspecified) [Dyphylline] | 1.1 | 0.936 | 1.01 | 1.01 |
| CCCc1nc(C(C)(C)O)c(C(=O)OCc2oc(=O)oc2C)n1Cc1ccc(-c2ccccc2-c2nnn[nH]2)cc1 [Olmesartan Medoxomil] | 0.907 | 0.929 | 1.1 | 1.02 |
| CC(C)(C)c1ccc(S(=O)(=O)NCc2ccc(C(=O)Nc3cccnc3)cc2)cc1 | 0.0955 | 0.074 | 0.0667 | 0.0514 |
| CO[C@H]1C(=O)[C@]2(C)[C@@H](OC)C[C@H]3OC[C@@]3(OC(C)=O)[C@H]2[C@H](OC(=O)c2ccccc2)[C@]2(O)C[C@H](OC(=O)[C@H](O)[C@@H](NC(=O)OC(C)(C)C)c3ccccc3)C(C)=C1C2(C)C [Cabazitaxel] | 0.262 | 0.283 | 0.24 | 0.269 |
